Laboratory results reported in the supplement of paper PMC3334620.
In all, about 33,000 sequences were measured (“E-score (-0.5 to 0.5)”: median about -0.017, highest 2% from about 0.3 on). Some of the results follow.

These sequences were tested against T1, Sut1 (UniProt P53032) (assay: PBM E-score (8-mer binding enrichment) (E-score (-0.5 to 0.5)); higher = stronger / more preferred TF binding; most listed sequences are background and not binding sites). Conditions: protein concentration: 200 nM; construct: GST-full length.
T1 sequence: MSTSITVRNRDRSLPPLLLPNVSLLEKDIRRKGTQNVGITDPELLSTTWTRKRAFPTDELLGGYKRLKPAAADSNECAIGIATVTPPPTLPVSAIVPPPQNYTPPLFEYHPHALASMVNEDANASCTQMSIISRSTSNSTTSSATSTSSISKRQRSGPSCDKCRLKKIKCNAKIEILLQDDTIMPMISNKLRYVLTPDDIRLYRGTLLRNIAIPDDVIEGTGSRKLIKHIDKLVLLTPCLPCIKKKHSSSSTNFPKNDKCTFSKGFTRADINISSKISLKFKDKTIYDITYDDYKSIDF
How it was run: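 Full-length yeast transcription factors or their DNA-binding domains, GST-tagged and expressed with PURExpress, were applied at about 100-200 nM to universal all-10-mer Agilent arrays. These arrays had been made double-stranded by primer extension on fresh or once-stripped slides. Detection used fluorescent anti-GST, normalisation used masliner, and E-scores for ungapped eight-base words pooled with reverse complements came from the Universal PBM Analysis Suite.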

Sequence	PBM E-score
GCTCCCAA	-0.0979
AGCAGTTG	-0.0164
AAACGTGA	0.0732
GCTCGCCA	-0.0188
GCCGCAGA	-0.0852
CATTTCAG	0.0719
ACTGGTAA	0.177
GGCCACAC	0.0644
TCGTTGCA	-0.0958
CACAGGCG	-0.0616
AAGCCAAT	0.11
TAACAAAA	0.287
ACATTGTA	0.17
GTCCGCCA	0.0605
TTGCTAAA	0.026
AATGCTTG	-0.238
GCAGATGC	-0.29
ACGTGGCT	-0.241
GGAAACAC	0.113
AGAGTTGC	-0.076
GCAAGGCA	-0.215
CGGGCGTC	-0.0799
CTCGATTA	0.0353
ATATGGCC	-0.117
GAAAACTA	0.154

Sequence	PBM E-score
AGCTAAAT	0.0415
CGGAGAGC	0.109
CAAGGGTA	-0.228
ATTGCCTC	0.0893
CGATTGTA	0.152
AACACACG	0.0232
AACGTTGA	0.0486
CATACACC	-0.041
TATGTTCA	0.124
AGGCTGCC	-0.124
TGCACCAA	-0.248
AATCCAAC	0.0651
GCGAATGA	0.103
ACGTTTCT	-0.129
CTCTCCAC	-0.154
AGGTGGTA	0.0328
ACGACCCT	-0.197
CACCTCTG	-0.194
CGCGATCA	-0.123
CCTATTAC	0.116
CTGTGTCA	-0.131
AGATGCCC	-0.15
AAGCAAAG	0.0776
GCAGTAGA	-0.121
CGCTTATA	0.0405

Sequence	PBM E-score
CGACGAAC	-0.0348
ACTTTCTG	0.154
CGTCTTTC	0.105
AGACTCCT	-0.142
CGCCGGCC	-0.0583
ACGCTTCG	0.0504
TCACGAAA	0.094
ATCTAGGC	-0.242
CACTCCAC	-0.0759
TGCCTCAA	-0.0365
AGACTCCC	-0.319
CAACCTGC	-0.138
ACTACCGC	0.159
ACCGCGGC	0.154
CCCTTCGG	-0.0951
AAGGCTCG	-0.154
CCGTGGCC	-0.243
CAGGACCA	-0.0443
ATCCATGA	-0.103
CTGAAAAG	0.0451
ATTGCCAC	-0.0449
AGCGATTA	0.0691
GAGCGTAC	-0.18
GAACGTTC	-0.093
AGCCGAAG	-0.121

Sequence	PBM E-score
CTGAGCAA	-0.211
CCTTGCAC	-0.0952
GAGTGAAA	0.136
GACGTCTC	-0.194
ATCGTGCC	-0.0957
ATCTAGGG	-0.097
TCCAACCA	-0.0894
AGGCTCCC	-0.0884
CAGATCTC	-0.0481
ATTTAGGC	0.137
ACCAAAAA	0.29
AGCACACC	-0.0874
AACCAAAC	-0.02
ACCCCGGT	0.191
ATCCTAGG	-0.178
CCTACAGA	-0.145
AATGGGGT	-0.0202
CTGGAGCC	-0.204
ATTTGGGC	-0.154
GCCGAGGC	-0.133
GGTTAAAC	0.226
CGTAGTTC	-0.0748
GCAAACCA	0.0901
CTTAAGGC	-0.157
ATCGCTTC	-0.00337

Sequence	PBM E-score
AGCGAGAT	-0.0514
CGAGCACG	-0.112
CTATGCCA	-0.269
GCTAAACA	-0.0541
CTGCAGGC	-0.316
CAACCACG	0.0166
GGTTATAA	0.0773
GCCTCAAA	-0.162
AACCAAGG	-0.0306
AAAGGCGT	-0.0455
CGAGGATA	-0.16
AAGCCTAT	-0.00924
GAAGCGAC	-0.0313
ATCGTGGA	-0.152
CTAGCGGC	-0.102
CAGGCAGA	-0.19
GTAGCTAA	0.0175
AGAGGGTG	-0.223
AACTGGTC	0.0336
AGTAGGCC	-0.115
GCCGCGTA	-0.0906
CATGCCTC	0.0616
AGCCTTCG	-0.203
CATGCTCA	-0.0391
CCATAGGG	-0.147

Sequence	PBM E-score
CTAAGTGC	-0.215
CGTCATTC	0.173
TGCAAGCA	-0.132
AGTCGTCG	-0.145
GTCTGCGA	-0.15
AGATGATC	0.02
ATGCGCAA	-0.213
ATTATCCC	-0.0033
ACCAGCTA	-0.0983
ACTGCCCA	-0.175
CGTGAAAG	-0.122
GAGGACTC	-0.231
CCGTTTGC	0.111
AACTCCTA	0.147
AGATATTG	0.159
GTACCTGA	-0.0946
TATAAGCA	0.0991
AAGCACTG	0.112
GTAGTTCA	0.0978
CAAGGCAC	-0.175
CTGTGGAC	-0.172
CCCCGGGC	0.087
TAATGTGA	0.228
ATGGAGCC	-0.156
AGAAGTTG	-0.0573

Sequence	PBM E-score
AGTGGGGG	-0.35
CAATCCTC	0.0534
AATATGCT	0.176
ACGAATCA	0.17
CGGCCATC	-0.0876
TGACGCAA	-0.167
AACTGCAT	0.00562
AATACTGT	0.136
AACCTGAT	0.108
CACCGGCG	0.117
GGCAGAGA	-0.0763
AATATAAG	0.218
CCAGCTTA	-0.158
ACAACCCT	-0.0789
ATTTGAAA	0.268
GGATCGAC	-0.0516
ACCGTACG	-0.169
CCAAAGGA	-0.0234
ACATCAAA	0.126
ATCCGGAT	0.257
AGAGATGC	-0.257
ATGTCCAG	-0.171
